{"source": "PubChem BioAssay (Tox21)", "note": "Several values for one entry are separate records, joined by “and”; a condition that tells them apart may be missing. Identical values can stand only once. The shares of active, inactive and inconclusive entries below differ from those in the screen. A potency beside an inconclusive call is a rough fit, not a confirmed value. More than one record can exist for a structure, and the calls need not agree. Activity calls are given as the source filed them. Unless noted, calls come from the whole dose curve. % is set by controls: 0 for no effect and ±100 for the full control effect; potency is the fitted concentration of half-maximal effect; tags give direction and shape of the fitted curve or compound fluorescence and quenching.", "data": [{"experiment": "qHTS assay to identify small molecule agonists of the hypoxia (HIF-1) signaling pathway - cell viability counter screen (AID 1224844); note: nearly all actives have a fitted effect of over 50% in size", "conditions": "HRE-bla ME-180 viability, CellTiter-Glo luminescence, 17 h; series mostly up to 76.8 µM", "method_in_brief": "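HRE-bla ME-180; 0.5% dFBS; cpd 17 h, 37C, 5% CO2; CellTiter-Glo lum., 30 min RT, post-FRET read, same wells.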", "values": [{"smiles": "CCCCN(N=O)C(=N)N[N+](=O)[O-]", "Potency": "inconclusive: 50 µM [cytotoxic, partial curve]"}, {"smiles": "BrC(Br)C(Br)(Br)Br", "Potency": "inconclusive: 34.9 µM [cytotoxic, partial curve]"}, {"smiles": "CC(C)(OO)c1ccccc1", "Potency": "inactive"}, {"smiles": "CC(=O)C(Cl)C(=O)N(C)C", "note": "(stereo not given)", "Potency": "active: 43.6 µM"}, {"smiles": "COc1ccc(N)cc1N", "Potency": "inconclusive: 29.7 µM [cytotoxic, single point]"}, {"smiles": "CCC(C)(NC(=O)c1cc(Cl)c(C)c(Cl)c1)C(=O)CCl", "note": "(stereo not given)", "Potency": "active: 34.9 µM"}, {"smiles": "CCC(=O)C(CC(C)N(C)C)(c1ccccc1)c1ccccc1", "note": "(stereo not given)", "Potency": "inconclusive: 49.2 µM [cytotoxic, single point]"}, {"smiles": "CCNc1nc(Cl)nc(NCC)n1", "Potency": "active: 55.2 µM"}]}, {"experiment": "qHTS assay to identify small molecule agonists of H2AX (AID 1224845; active = well fitted activation curve with a large enough effect in the signal ratio in the repeat runs, not every such curve was filed as active; inconclusive = weak or mixed curves; the % refers to the signal ratio)", "conditions": "CHO-K1 phospho-H2AX Ser139 HTRF, 3 h; activation (H2AX phosphorylation): at 154 µM (top of the series) unless noted", "method_in_brief": "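Phospho-H2AX Ser139 measured by HTRF (ex 320 nm; em 665 and 620 nm) after 24 hr antibody incubation. Compounds, 15 concentrations, 0.76% DMSO, were applied to CHO-K1 cells for 3hr at 37C before lysis.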", "values": [{"smiles": "CCCCN(N=O)C(=N)N[N+](=O)[O-]", "Potency": "active: 103 µM"}, {"smiles": "BrC(Br)C(Br)(Br)Br", "activation (H2AX phosphorylation)": "inconclusive: 14.5%"}, {"smiles": "CC1Sc2c(C(=O)O)c(=O)c3cc(F)c(N4CCNCC4)cc3n21", "note": "(stereo not given)", "Potency": "inactive"}, {"smiles": "CS(=O)(=O)c1cc(C(F)(F)F)ccc1C(=O)c1cnoc1C1CC1", "Potency": "inconclusive: 35.7 µM [falling, partial curve, poor fit]"}, {"smiles": "CC(C)(OO)c1ccccc1", "Potency": "inconclusive: 45 µM [rising, full curve, poor fit]"}, {"smiles": "CC#C[C@]1(O)CC[C@H]2[C@@H]3C[C@H](C)C4=CC(=O)CC[C@]4(C)[C@H]3CC[C@@]21C", "Potency": "active: 7.8 µM"}, {"smiles": "CC(=O)C(Cl)C(=O)N(C)C", "note": "(stereo not given)", "Potency": "inconclusive: 113 µM [activator, single point]"}, {"smiles": "COc1ccc(N)cc1N", "Potency": "inconclusive: 65.6 µM [falling, partial curve] and inconclusive: 27.2 µM [falling, partial curve]"}, {"smiles": "CCNc1nc(Cl)nc(NCC)n1", "Potency": "inactive"}, {"smiles": "[Hg+2].[I-].[I-]", "Potency": "inconclusive: 113 µM [falling, single point]"}]}, {"experiment": "qHTS assay to identify small molecule agonists of the hypoxia (HIF-1) signaling pathway (AID 1224846; active = well fitted activation curve with a large enough effect in the signal ratio in the repeat runs, not every such curve was filed as active; inconclusive = weak or mixed curves; the % refers to the signal ratio)", "conditions": "HRE-bla ME-180 cells, beta-lactamase ratio, 17 h; activation: at 76.8 µM (top of the series) unless noted", "method_in_brief": "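Reporter induction in HRE-bla ME-180 cells is taken as agonism: cells sit 5 hrs after plating, receive compounds or DMSO only, incubate 17 hrs at 37C under 5% CO2, and are loaded with CCF4-AM for beta-lactamase FRET measurement.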", "values": [{"smiles": "C=CCN(CC=C)C(=O)C(Cl)Cl", "Potency": "inactive"}, {"smiles": "S=C=NCc1ccccc1", "Potency": "inconclusive: 55.5 µM [single point]"}, {"smiles": "BrC(Br)C(Br)(Br)Br", "Potency": "inconclusive: 62 µM"}, {"smiles": "CCCCOC(=O)COC(=O)c1ccccc1C(=O)OCCCC", "Potency": "inactive"}, {"smiles": "Cc1ccccc1O", "Potency": "inactive"}, {"smiles": "COc1ccc(N)cc1N", "Potency": "inconclusive: 29.7 µM [single point]"}, {"smiles": "C=C(C#N)CCC#N", "Potency": "inactive"}, {"smiles": "CCC(C)(NC(=O)c1cc(Cl)c(C)c(Cl)c1)C(=O)CCl", "note": "(stereo not given)", "Potency": "inconclusive: 49.3 µM [falling, partial curve]"}, {"smiles": "CN1C(=O)NC(=O)C(C)(C2=CCCCC2)C1=O", "note": "(stereo not given)", "Potency": "inactive"}, {"smiles": "CCC(=O)C(CC(C)N(C)C)(c1ccccc1)c1ccccc1", "note": "(stereo not given)", "Potency": "inconclusive: 49.2 µM [rising, single point]"}, {"smiles": "CCNc1nc(Cl)nc(NCC)n1", "Potency": "inconclusive: 55.2 µM"}, {"smiles": "[Hg+2].[I-].[I-]", "Potency": "inconclusive: 1.74 µM [falling, full curve]"}]}]}
